The values below come from the supplement of paper PMC12230231.

± gives the standard deviation of the averaged measurements. Restriction of a single-cycle SIVsab GFP reporter by TRIM5α v1-loop variants in CRFK cells. Human variants: read share among cells still uninfected after two challenges over input, higher = gained restriction. Rhesus variants: share among infected cells over input, higher = lost restriction. Reporter dose not given per row. No active / inactive call per row; the paper calls a change when both replicates lie above its controls (mean + 2 SD of stop or wild-type variants, or the top frameshift score). Residues outside the varied loop are taken from Swiss-Prot. The paper reads the human single-substitution scores as noise; they and the rhesus combinations repeat poorly (rank correlation 0.3 to 0.4), indel scores repeat only for the top variants, rhesus substitutions well (0.9).

The test system of the data set is SIVsab (simian immunodeficiency virus of sabaeus monkeys), single-cycle GFP reporter, in CRFK cells. As to the kind of experiment: enrichment among infected cells over input (fold); higher = weaker restriction. Conditions: library: human / rhesus combinations. Here is the method:
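Pools of CRFK cells expressing variants of the TRIM5α v1 loop were challenged with the single-cycle reporter, sorted by GFP and sequenced; mean of two replicates.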
For “MASGILLNVKEEVTCPICLELLTEPLSLHCGHSFCQACITANHKKSMLYKEGERSCPVCRISYQPENIQPNRHVANIVEKLREVKLSPEEGQKVDHCARHGEKLLLFCQEDSKVICWLCERSQEHRGHHTFLMEEVAQEYHVKLQTALEMLRQKQQEAEKLEADIREEKASWKIQIDYDKTNVSADFEQLREILDWEESNELQNLEKEEEDILKSLTKSETEMVQQTQYMRELISELEHRLQGSMMDLLQGVDGIIKRIENMTLKKPKTFHKNQRRVFRAPDLKGMLDMFRELTDARRYWVDVTLAPNNISHAVIAEDKRQVSSRNPQIMYGAPGTRYTFQSFTNFNYCTGVLGSQSITSGKHYWEVDVSKKSAWILGVCAGFQSDAMYNIEQNENYQPKYGYWVIGLQEGVKYSVFQDGSSHTPFAPFIVPLSVIICPDRVGVFVDYEACTVSFFNITNHGFLIYKFSQCSFSKPVFPYLNPRKCTVPMTLCSPSS [rhesus TRIM5α, 332-344 = GAPGTRYTFQSFT]”, the enrichment was determined as 1.27 ± 0.079. For “MASGILLNVKEEVTCPICLELLTEPLSLHCGHSFCQACITANHKKSMLYKEGERSCPVCRISYQPENIQPNRHVANIVEKLREVKLSPEEGQKVDHCARHGEKLLLFCQEDSKVICWLCERSQEHRGHHTFLMEEVAQEYHVKLQTALEMLRQKQQEAEKLEADIREEKASWKIQIDYDKTNVSADFEQLREILDWEESNELQNLEKEEEDILKSLTKSETEMVQQTQYMRELISELEHRLQGSMMDLLQGVDGIIKRIENMTLKKPKTFHKNQRRVFRAPDLKGMLDMFRELTDARRYWVDVTLAPNNISHAVIAEDKRQVSSRNPQIMYGAPGTRYTFQSFVNFNYCTGVLGSQSITSGKHYWEVDVSKKSAWILGVCAGFQSDAMYNIEQNENYQPKYGYWVIGLQEGVKYSVFQDGSSHTPFAPFIVPLSVIICPDRVGVFVDYEACTVSFFNITNHGFLIYKFSQCSFSKPVFPYLNPRKCTVPMTLCSPSS [rhesus TRIM5α, 332-344 = GAPGTRYTFQSFV]” the value was 1 ± 0.22; for “MASGILLNVKEEVTCPICLELLTEPLSLHCGHSFCQACITANHKKSMLYKEGERSCPVCRISYQPENIQPNRHVANIVEKLREVKLSPEEGQKVDHCARHGEKLLLFCQEDSKVICWLCERSQEHRGHHTFLMEEVAQEYHVKLQTALEMLRQKQQEAEKLEADIREEKASWKIQIDYDKTNVSADFEQLREILDWEESNELQNLEKEEEDILKSLTKSETEMVQQTQYMRELISELEHRLQGSMMDLLQGVDGIIKRIENMTLKKPKTFHKNQRRVFRAPDLKGMLDMFRELTDARRYWVDVTLAPNNISHAVIAEDKRQVSSRNPQIMYGAPGTRYTFQSLTNFNYCTGVLGSQSITSGKHYWEVDVSKKSAWILGVCAGFQSDAMYNIEQNENYQPKYGYWVIGLQEGVKYSVFQDGSSHTPFAPFIVPLSVIICPDRVGVFVDYEACTVSFFNITNHGFLIYKFSQCSFSKPVFPYLNPRKCTVPMTLCSPSS [rhesus TRIM5α, 332-344 = GAPGTRYTFQSLT]”, 1.52 ± 0.86; for “MASGILLNVKEEVTCPICLELLTEPLSLHCGHSFCQACITANHKKSMLYKEGERSCPVCRISYQPENIQPNRHVANIVEKLREVKLSPEEGQKVDHCARHGEKLLLFCQEDSKVICWLCERSQEHRGHHTFLMEEVAQEYHVKLQTALEMLRQKQQEAEKLEADIREEKASWKIQIDYDKTNVSADFEQLREILDWEESNELQNLEKEEEDILKSLTKSETEMVQQTQYMRELISELEHRLQGSMMDLLQGVDGIIKRIENMTLKKPKTFHKNQRRVFRAPDLKGMLDMFRELTDARRYWVDVTLAPNNISHAVIAEDKRQVSSRNPQIMYGAPGTRYTFQSLVNFNYCTGVLGSQSITSGKHYWEVDVSKKSAWILGVCAGFQSDAMYNIEQNENYQPKYGYWVIGLQEGVKYSVFQDGSSHTPFAPFIVPLSVIICPDRVGVFVDYEACTVSFFNITNHGFLIYKFSQCSFSKPVFPYLNPRKCTVPMTLCSPSS [rhesus TRIM5α, 332-344 = GAPGTRYTFQSLV]”, 1.85 ± 0.61. As to “MASGILLNVKEEVTCPICLELLTEPLSLHCGHSFCQACITANHKKSMLYKEGERSCPVCRISYQPENIQPNRHVANIVEKLREVKLSPEEGQKVDHCARHGEKLLLFCQEDSKVICWLCERSQEHRGHHTFLMEEVAQEYHVKLQTALEMLRQKQQEAEKLEADIREEKASWKIQIDYDKTNVSADFEQLREILDWEESNELQNLEKEEEDILKSLTKSETEMVQQTQYMRELISELEHRLQGSMMDLLQGVDGIIKRIENMTLKKPKTFHKNQRRVFRAPDLKGMLDMFRELTDARRYWVDVTLAPNNISHAVIAEDKRQVSSRNPQIMYGAPGTRYTFQTFTNFNYCTGVLGSQSITSGKHYWEVDVSKKSAWILGVCAGFQSDAMYNIEQNENYQPKYGYWVIGLQEGVKYSVFQDGSSHTPFAPFIVPLSVIICPDRVGVFVDYEACTVSFFNITNHGFLIYKFSQCSFSKPVFPYLNPRKCTVPMTLCSPSS [rhesus TRIM5α, 332-344 = GAPGTRYTFQTFT]”, the enrichment is 1.64 ± 0.94. Turning to “MASGILLNVKEEVTCPICLELLTEPLSLHCGHSFCQACITANHKKSMLYKEGERSCPVCRISYQPENIQPNRHVANIVEKLREVKLSPEEGQKVDHCARHGEKLLLFCQEDSKVICWLCERSQEHRGHHTFLMEEVAQEYHVKLQTALEMLRQKQQEAEKLEADIREEKASWKIQIDYDKTNVSADFEQLREILDWEESNELQNLEKEEEDILKSLTKSETEMVQQTQYMRELISELEHRLQGSMMDLLQGVDGIIKRIENMTLKKPKTFHKNQRRVFRAPDLKGMLDMFRELTDARRYWVDVTLAPNNISHAVIAEDKRQVSSRNPQIMYGAPGTRYTFQTFVNFNYCTGVLGSQSITSGKHYWEVDVSKKSAWILGVCAGFQSDAMYNIEQNENYQPKYGYWVIGLQEGVKYSVFQDGSSHTPFAPFIVPLSVIICPDRVGVFVDYEACTVSFFNITNHGFLIYKFSQCSFSKPVFPYLNPRKCTVPMTLCSPSS [rhesus TRIM5α, 332-344 = GAPGTRYTFQTFV]”, the enrichment came to 1.69 ± 0.91. Then “MASGILLNVKEEVTCPICLELLTEPLSLHCGHSFCQACITANHKKSMLYKEGERSCPVCRISYQPENIQPNRHVANIVEKLREVKLSPEEGQKVDHCARHGEKLLLFCQEDSKVICWLCERSQEHRGHHTFLMEEVAQEYHVKLQTALEMLRQKQQEAEKLEADIREEKASWKIQIDYDKTNVSADFEQLREILDWEESNELQNLEKEEEDILKSLTKSETEMVQQTQYMRELISELEHRLQGSMMDLLQGVDGIIKRIENMTLKKPKTFHKNQRRVFRAPDLKGMLDMFRELTDARRYWVDVTLAPNNISHAVIAEDKRQVSSRNPQIMYGAPGTRYTFQTLTNFNYCTGVLGSQSITSGKHYWEVDVSKKSAWILGVCAGFQSDAMYNIEQNENYQPKYGYWVIGLQEGVKYSVFQDGSSHTPFAPFIVPLSVIICPDRVGVFVDYEACTVSFFNITNHGFLIYKFSQCSFSKPVFPYLNPRKCTVPMTLCSPSS [rhesus TRIM5α, 332-344 = GAPGTRYTFQTLT]”, with 1.05 ± 0.41; and “MASGILLNVKEEVTCPICLELLTEPLSLHCGHSFCQACITANHKKSMLYKEGERSCPVCRISYQPENIQPNRHVANIVEKLREVKLSPEEGQKVDHCARHGEKLLLFCQEDSKVICWLCERSQEHRGHHTFLMEEVAQEYHVKLQTALEMLRQKQQEAEKLEADIREEKASWKIQIDYDKTNVSADFEQLREILDWEESNELQNLEKEEEDILKSLTKSETEMVQQTQYMRELISELEHRLQGSMMDLLQGVDGIIKRIENMTLKKPKTFHKNQRRVFRAPDLKGMLDMFRELTDARRYWVDVTLAPNNISHAVIAEDKRQVSSRNPQIMYGAPGTRYTFQTLVNFNYCTGVLGSQSITSGKHYWEVDVSKKSAWILGVCAGFQSDAMYNIEQNENYQPKYGYWVIGLQEGVKYSVFQDGSSHTPFAPFIVPLSVIICPDRVGVFVDYEACTVSFFNITNHGFLIYKFSQCSFSKPVFPYLNPRKCTVPMTLCSPSS [rhesus TRIM5α, 332-344 = GAPGTRYTFQTLV]”, with 1.6 ± 0.61; and “MASGILLNVKEEVTCPICLELLTEPLSLHCGHSFCQACITANHKKSMLYKEGERSCPVCRISYQPENIQPNRHVANIVEKLREVKLSPEEGQKVDHCARHGEKLLLFCQEDSKVICWLCERSQEHRGHHTFLMEEVAQEYHVKLQTALEMLRQKQQEAEKLEADIREEKASWKIQIDYDKTNVSADFEQLREILDWEESNELQNLEKEEEDILKSLTKSETEMVQQTQYMRELISELEHRLQGSMMDLLQGVDGIIKRIENMTLKKPKTFHKNQRRVFRAPDLKGMLDMFRELTDARRYWVDVTLAPNNISHAVIAEDKRQVSSRNPQIMYGARGTLFPSFTNFNYCTGVLGSQSITSGKHYWEVDVSKKSAWILGVCAGFQSDAMYNIEQNENYQPKYGYWVIGLQEGVKYSVFQDGSSHTPFAPFIVPLSVIICPDRVGVFVDYEACTVSFFNITNHGFLIYKFSQCSFSKPVFPYLNPRKCTVPMTLCSPSS [rhesus TRIM5α, 332-344 = GARGTLFPSFT]”, with 1.32 ± 0.58.

In the case of “MASGILLNVKEEVTCPICLELLTEPLSLHCGHSFCQACITANHKKSMLYKEGERSCPVCRISYQPENIQPNRHVANIVEKLREVKLSPEEGQKVDHCARHGEKLLLFCQEDSKVICWLCERSQEHRGHHTFLMEEVAQEYHVKLQTALEMLRQKQQEAEKLEADIREEKASWKIQIDYDKTNVSADFEQLREILDWEESNELQNLEKEEEDILKSLTKSETEMVQQTQYMRELISELEHRLQGSMMDLLQGVDGIIKRIENMTLKKPKTFHKNQRRVFRAPDLKGMLDMFRELTDARRYWVDVTLAPNNISHAVIAEDKRQVSSRNPQIMYGARGTLFPSFVNFNYCTGVLGSQSITSGKHYWEVDVSKKSAWILGVCAGFQSDAMYNIEQNENYQPKYGYWVIGLQEGVKYSVFQDGSSHTPFAPFIVPLSVIICPDRVGVFVDYEACTVSFFNITNHGFLIYKFSQCSFSKPVFPYLNPRKCTVPMTLCSPSS [rhesus TRIM5α, 332-344 = GARGTLFPSFV]”, the enrichment came to 0.226 ± 0.015.

With “MASGILLNVKEEVTCPICLELLTEPLSLHCGHSFCQACITANHKKSMLYKEGERSCPVCRISYQPENIQPNRHVANIVEKLREVKLSPEEGQKVDHCARHGEKLLLFCQEDSKVICWLCERSQEHRGHHTFLMEEVAQEYHVKLQTALEMLRQKQQEAEKLEADIREEKASWKIQIDYDKTNVSADFEQLREILDWEESNELQNLEKEEEDILKSLTKSETEMVQQTQYMRELISELEHRLQGSMMDLLQGVDGIIKRIENMTLKKPKTFHKNQRRVFRAPDLKGMLDMFRELTDARRYWVDVTLAPNNISHAVIAEDKRQVSSRNPQIMYGARGTLFPSLTNFNYCTGVLGSQSITSGKHYWEVDVSKKSAWILGVCAGFQSDAMYNIEQNENYQPKYGYWVIGLQEGVKYSVFQDGSSHTPFAPFIVPLSVIICPDRVGVFVDYEACTVSFFNITNHGFLIYKFSQCSFSKPVFPYLNPRKCTVPMTLCSPSS [rhesus TRIM5α, 332-344 = GARGTLFPSLT]”, the enrichment is 1.08 ± 0.09.

On to “MASGILLNVKEEVTCPICLELLTEPLSLHCGHSFCQACITANHKKSMLYKEGERSCPVCRISYQPENIQPNRHVANIVEKLREVKLSPEEGQKVDHCARHGEKLLLFCQEDSKVICWLCERSQEHRGHHTFLMEEVAQEYHVKLQTALEMLRQKQQEAEKLEADIREEKASWKIQIDYDKTNVSADFEQLREILDWEESNELQNLEKEEEDILKSLTKSETEMVQQTQYMRELISELEHRLQGSMMDLLQGVDGIIKRIENMTLKKPKTFHKNQRRVFRAPDLKGMLDMFRELTDARRYWVDVTLAPNNISHAVIAEDKRQVSSRNPQIMYGARGTLFPSLVNFNYCTGVLGSQSITSGKHYWEVDVSKKSAWILGVCAGFQSDAMYNIEQNENYQPKYGYWVIGLQEGVKYSVFQDGSSHTPFAPFIVPLSVIICPDRVGVFVDYEACTVSFFNITNHGFLIYKFSQCSFSKPVFPYLNPRKCTVPMTLCSPSS [rhesus TRIM5α, 332-344 = GARGTLFPSLV]”, for which the enrichment is 0.639 ± 0.29.
